Screen size: about 45,000 compounds; about 65 (0.1%) were called active. The call rests on the fitted dose curve; in most records, active means well fitted activation curve with a large enough effect; inconclusive means small, poorly fitted or top-dose-only effect; inactive means no such curve, though single readings can be large or run the other way. The list shows a part of the results.
What follows are compounds tested against Galactocerebrosidase (Homo sapiens) (UniProt P54803) (assay: A Novel Cell-Based Assay to Identify Small Molecules for B -Galactocerebrosidase). Details: 145M-Twi-hGALC-G270D cells (Twitcher mouse brain line with human GALC G270D), HMU-beta-Gal fluorescence, 48 h; series mostly up to 57.5 µM; activation: at the top concentration.
Chain of UniProt P54803 (P54803 whole entry, looked up): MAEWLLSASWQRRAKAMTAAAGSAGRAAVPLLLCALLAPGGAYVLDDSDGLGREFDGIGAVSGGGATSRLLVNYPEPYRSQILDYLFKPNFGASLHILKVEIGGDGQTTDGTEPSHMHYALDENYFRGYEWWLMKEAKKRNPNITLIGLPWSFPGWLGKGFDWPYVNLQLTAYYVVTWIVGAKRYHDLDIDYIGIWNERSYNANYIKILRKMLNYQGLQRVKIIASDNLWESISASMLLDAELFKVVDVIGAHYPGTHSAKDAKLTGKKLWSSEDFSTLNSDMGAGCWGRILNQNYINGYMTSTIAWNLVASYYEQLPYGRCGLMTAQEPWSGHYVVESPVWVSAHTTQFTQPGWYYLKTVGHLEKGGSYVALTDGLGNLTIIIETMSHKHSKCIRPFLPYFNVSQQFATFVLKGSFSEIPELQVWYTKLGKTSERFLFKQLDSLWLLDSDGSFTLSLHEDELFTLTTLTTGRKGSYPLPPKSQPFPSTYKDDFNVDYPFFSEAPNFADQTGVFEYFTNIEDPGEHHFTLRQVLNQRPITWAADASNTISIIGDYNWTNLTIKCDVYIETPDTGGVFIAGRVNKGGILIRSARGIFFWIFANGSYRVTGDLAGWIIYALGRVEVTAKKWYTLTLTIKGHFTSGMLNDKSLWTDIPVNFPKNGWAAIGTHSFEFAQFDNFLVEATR
Summary of the method: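 Live 145M-Twi cells (Twitcher mouse brain-derived, GALC-null) stably expressing human GALC-G270D, with a wild-type GALC line, were compound-treated. Residual GALC activity was then read as fluorescence from 0.1 mM final HMU-β-gal at pH 5.2; higher signal means activation.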
For COc1ccc(-c2noc(CNS(=O)(=O)c3ccc(Br)cc3)n2)cc1OC, the “activation” value was inactive: -10.9%. With Cc1ccc(-c2noc(CN(C(=O)COc3cc(C)cc(C)c3C)C(C)C)n2)cc1 the “activation” value was inactive: -39.3%. In the case of Cc1ccc(CNCc2c(C(=O)O)n(Cc3ccc(C)cc3)c3cc(C)ccc23)cc1, the “activation” value is reported as inactive: -0.0184%. CCOC(=O)c1c(C)[nH]c(CCC(=O)Nc2ccc(Cl)cc2C)c1C was tested, and the “activation” value was inactive: -10.6%. With COC(=O)c1ccc(OC)c(CN2C(=O)N(c3ccc(C(C)=O)cc3)S(=O)(=O)c3ccccc32)c1 the “activation” value was inactive: 9.99%. Cc1ccc2oc(=O)c3cnn(CC(=O)N4CCN(c5ccccc5)CC4)c3c2c1 was tested, and the “activation” value was inactive: -10.1%. COC(=O)c1c(NC(=O)CS(=O)(=O)c2ccc(C)cc2)sc2c1CCCC2 was tested, and the “activation” value was inactive: -6.31%. With Cc1c(Cl)cccc1NC(=O)CCN1C(=O)c2ccccc2Sc2ncccc21 the “activation” value was inactive: -13.6%. With CCC(Sc1nc2ccccc2c2nc(-c3ccccc3)nn12)C(=O)Nc1cccc(OC)c1 (stereo not drawn) the “activation” value was inactive: -11.3%. In the case of O=C(Nc1ccc(F)cc1F)c1cc2nc(-c3ccco3)cc(C(F)(F)Cl)n2n1, the “activation” value is reported as inactive: -11.6%. In the case of CCN(CC)C(=O)c1cc(-c2ccc(Cl)cc2)on1, the “activation” value is reported as inactive: -21.5%. In the case of O=C(Nc1cccc(Cl)c1)c1ccc(F)c(S(=O)(=O)N2CCC3(CC2)OCCO3)c1, the “activation” value is reported as inactive: -6%. With CCN(C(=O)Cn1nnc2sc(-c3ccccc3)cc2c1=O)c1cccc(C)c1 the “activation” value was inactive: -11.1%. For Cc1cc(NC(=O)CCNS(=O)(=O)c2ccc3c(c2)oc(=O)n3C)ccc1Br, the “activation” value was inactive: -4.25%. CCC(C)NC(=O)CSc1nc2n[nH]c(C)c2c(=N)n1-c1ccc(C)c(Cl)c1 (stereo not drawn) was tested, and the “activation” value was inactive: -10.4%. For Cc1ccc2c(=O)cc(C(=O)Nc3ccc(S(=O)(=O)N(C)Cc4ccccc4)cc3)oc2c1, the “activation” value was inactive: 5.83%. Cc1ccc(CNC(=O)CN(c2ccc(C)cc2)S(=O)(=O)c2c(C)nn(C)c2C)cc1 was tested, and the “activation” value was inactive: -5.29%. In the case of CCN(CC)S(=O)(=O)c1ccc2c(c1)c(=O)c(C(=O)N1CCN(c3cccc(C)c3)C(C)C1)cn2C (stereo not drawn), the “activation” value is reported as inactive: -13.4%. In the case of COC(=O)c1cnn2c(C)c(Cc3c(C)cc(C)cc3C)c(C)nc12, the “activation” value is reported as inactive: -7.5%. In the case of O=C(Nc1nnc(S(=O)(=O)N2CCCc3ccccc32)s1)c1ccccc1, the “activation” value is reported as inactive: -15.3%. CCC1CN(C(=O)Nc2cccc3c2CCCC3)c2ccccc2O1 (stereo not drawn) was tested, and the “activation” value was inactive: -24%. For COc1ccc(NC(=O)CCn2c(=O)c3cccn3c3ccccc32)c(OC)c1, the “activation” value was inactive: -11.3%. COc1ccc(N2CC(NC(=O)C3CC3)CC2=O)cc1OC (stereo not drawn) was tested, and the “activation” value was inactive: -12.1%. CC(=O)c1ccc(NC(=O)CN(C)S(=O)(=O)c2cccc3nsnc23)cc1 was tested, and the “activation” value was inactive: -4.41%. In the case of COc1ccccc1-c1cc2nc(C)c(CCC(=O)NCc3cccc(Cl)c3)c(C)n2n1, the “activation” value is reported as inactive: -36.1%. In the case of CCCCn1c(C(C)NC(=O)c2ccccc2)nc2ccccc21 (stereo not drawn), the “activation” value is reported as inactive: -14.5%. For O=C(Cn1c(=O)c2cccn2c2ccc(F)cc21)N1CCN(c2ccc(F)cc2)CC1, the “activation” value was inactive: -0.172%. With Fc1cccc(-n2ncc3c2ncn2nc(-c4ccccc4Cl)nc32)c1 the “activation” value was inactive: -7.04%. With CCOc1ccc(N(C)C(CNS(=O)(=O)c2ccccc2)c2ccccc2)cc1 (stereo not drawn) the “activation” value was inactive: -16.7%. In the case of O=C(COc1ccccc1)Nc1cccc(-c2cn3cccnc3n2)c1, the “activation” value is reported as inactive: -18.3%. With Cc1cccc(N2CCN(C(=O)CCn3c(=O)c4cccn4c4cccnc43)CC2)c1C the “activation” value was inactive: -0.0569%. In the case of Cc1c(C(=O)Nc2ccc(F)cc2)sc2nc[nH]c(=O)c12, the “activation” value is reported as inactive: -10.2%. With CCc1ccccc1NC(=O)c1cc(S(=O)(=O)N2CCCc3ccccc32)ccc1F the “activation” value was inactive: -7.37%. In the case of CC(C)CCn1c(=O)c2sccc2n2c(CCCC(=O)NCc3ccc(F)cc3)nnc12, the “activation” value is reported as inactive: -11.7%. Nc1ccc2cc3ccc(N)cc3nc2c1 was tested, and the “activation” value was inactive: -7.22%. N#Cc1cccc(NC(=O)c2cc3c(s2)-c2ccc(Cl)cc2SC3)c1 was tested, and the “activation” value was inactive: 12.1%. COc1ccccc1N1CCN(C(=O)c2cc(-c3ccccc3O)on2)CC1 was tested, and the “activation” value was inactive: -17.5%. With CCOc1ccc(C(=O)Nc2cc(-c3nc4ccccc4s3)ccc2OC)cc1 the “activation” value was inactive: 17.6%. For Cc1ccn2c(=O)c(C(=O)NC(C)c3ccccc3)c(O)nc2c1 (stereo not drawn), the “activation” value was inactive: -13.7%. In the case of CCOc1ccccc1CNC(=O)c1cccn1-c1nnc(N2CCCCC2)s1, the “activation” value is reported as inactive: -7.92%. In the case of Cc1cc(C)cc(NC(=O)c2cccc3c2C(=O)N(C2CCCCC2)C3)c1, the “activation” value is reported as inactive: -1.72%. For CCc1nn(CC(=O)NCc2ccccc2Cl)c(=O)c2cccn12, the “activation” value was inactive: -11%. Cc1nc(-c2ccc(S(=O)(=O)Nc3ccc(C)c(N(C)C)c3)cc2)co1 was tested, and the “activation” value was inactive: -35.5%. For COc1ccc(CCNC(=O)c2ccc3c(c2)N(Cc2ccc(F)cc2)CCS3)cc1OC, the “activation” value was inactive: -9.95%. O=S(=O)(c1ccccc1)c1nc(-c2cccs2)oc1SCc1ccc(F)cc1 was tested, and the “activation” value was inactive: -27.9%. In the case of Cc1nc(SCC(=O)Nc2ccccc2F)[nH]c(=O)c1Cc1ccccc1, the “activation” value is reported as inactive: -19.8%. For COc1ccccc1-n1c(-c2ccc(C)cc2)cn2c3c(=O)n(C)c(=O)n(C)c3nc12, the “activation” value was inactive: -2.39%. In the case of COc1ccc(NC(=O)c2cnc[nH]2)cc1, the “activation” value is reported as inactive: -6.24%. With COc1ccc(S(=O)(=O)c2cc(NS(=O)(=O)c3ccc(Cl)cc3)c(C)c(C)c2O)cc1 the “activation” value was inactive: -2.65%. Cc1ccc(C2c3[nH]c4ccccc4c3CCN2C(=O)CCC2CCCC2)cc1 (stereo not drawn) was tested, and the “activation” value was inactive: -10.5%. For COc1ccc(CNC(=O)c2ccc(CS(=O)Cc3ccccc3Cl)o2)cc1 (stereo not drawn), the “activation” value was inactive: 9.5%. CC12CCC(CC1)C(C)(C)O2 was tested, and the “activation” value was inactive: -9.65%. In the case of CCc1ccccc1NC(=O)C1CCCN(c2ncnc3onc(C)c23)C1 (stereo not drawn), the “activation” value is reported as inactive: -6.71%. For COc1ccccc1CCNS(=O)(=O)c1ccc(N2CCCCS2(=O)=O)cc1, the “activation” value was inactive: -9.32%. With COc1ccc(NC(=O)CCc2nnc3n(CC(C)C)c(=O)c4ccccc4n23)cc1 the “activation” value was inactive: -16.5%. O=C(c1ccc(CSc2nc3ccncc3n2Cc2ccccc2)cc1)N1CCCCCC1 was tested, and the “activation” value was inactive: -11.2%. With Cc1ccc(-n2nc(C(=O)N3CCN(c4cc(Cl)ccc4C)CC3)c3c4ccccc4n(C)c3c2=O)cc1 the “activation” value was inactive: -13.8%. For Cc1ccc(Cl)cc1-n1ncc2c(Nc3cccc(C)c3C)ncnc21, the “activation” value was inactive: -11.8%. For Cc1ccc(NC(=O)Cn2ccn(-c3ccc(F)c(F)c3)c(=O)c2=O)cc1C, the “activation” value was inactive: -21.3%. O=C(Nc1cccc(C(=O)OCc2cc(=O)n3c4c(sc3n2)CCCC4)c1)c1ccccc1 was tested, and the “activation” value was inactive: -0.789%. With O=c1c(S(=O)(=O)c2cccc(Cl)c2)cn(Cc2ccccc2)c2cc(N3CCOCC3)c(F)cc12 the “activation” value was inactive: -5.46%. Cc1cccc(NC(=O)C(NS(=O)(=O)c2ccc3c(c2)oc(=O)n3C)C(C)C)c1 (stereo not drawn) was tested, and the “activation” value was inactive: 2.32%. C=Cc1ccc(CSc2nc(-c3ccc(C)cc3)nc3c2Cc2c(CO)cnc(C)c2O3)cc1 was tested, and the “activation” value was inactive: -12.7%.

Reference: PubChem BioAssay AID1159614 (National Center for Advancing Translational Sciences (NCATS), 2016)
Further: 0% is about no effect; nearly all actives have a fitted effect of over 65% in size.
